# The supplement of paper PMC8728848
# Some of the results follow.
# B1: Pwp2 (Candida glabrata) (protein)
# chain: MGSSHHHHHHSSGLVPRGSHMASKNPVELNNVCTFPNDYGRIPGFTVLVGRLGLLISASDYKELLRYPGAFLIATQDTMTTSPNFELTGFPFFTGLYGLTVFPLDLLVELRGYFVPPNSGQYTFTLSDSDDAAIIFLGNPSAFPCGDLQNWPKPSEEDITVTDHLFPSRTLYLIEGVAYPMRIAYYNGIGAGRLNAAFIDPSGTRHTNWEGYIWQYDPCSTCTYS
# Columns and labels:
# Assay in all cases: glycan array binding signal (z-score within array); higher = stronger binding
# Conditions in all cases: glycan notation: IUPAC condensed, linker removed
# [1] = molecular target: Neu5Ac(a2-3)Gal(b1-3)GlcNAc6S
# Procedure, shortened: (§1)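 The binding signal is a Z-score computed within each array. Data were drawn from 3228 arrays in the Consortium for Functional Glycomics database, restricted to those with a known protein sequence. Scores were averaged over arrays of the same protein sequence at different concentrations or buffers, and over linkers, and negative values can be taken as non-binding.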
# [2] = molecular target: Neu5Ac(a2-3)Gal(b1-3)[Fuc(a1-4)]GlcNAc
# Procedure, shortened: as §1
# [3] = molecular target: Neu5Ac(a2-3)Gal(b1-3)[Fuc(a1-4)]GlcNAc(b1-3)Gal(b1-3)[Fuc(a1-4)]GlcNAc
# Procedure, shortened: as §1
# [4] = molecular target: Neu5Ac(a2-3)Gal(b1-3)[Fuc(a1-4)]GlcNAc(b1-3)Gal(b1-4)[Fuc(a1-3)]GlcNAc
# Procedure, shortened: as §1
# [5] = molecular target: Neu5Ac(a2-3)Gal(b1-3)[GlcNAc(b1-6)]GalNAc
# Procedure, shortened: as §1
# [6] = molecular target: Neu5Ac(a2-3)Gal(b1-3)[Neu5Ac(a2-6)]GalNAc
# Procedure, shortened: as §1
# [7] = molecular target: Neu5Ac(a2-3)Gal(b1-3)[Neu5Ac(a2-6)]GlcNAc(b1-3)[Fuc(a1-3)[Gal(b1-4)]GlcNAc(b1-6)]Gal(b1-4)Glc
# Procedure, shortened: as §1
# [8] = molecular target: Neu5Ac(a2-3)Gal(b1-3)]Neu5Ac(a2-3)Gal(b1-4)]GlcNAc
# Procedure, shortened: as §1
# Neu5Ac(a2-3)Gal(b1-4)Glc = molecular target: Neu5Ac(a2-3)Gal(b1-4)Glc
# Procedure, shortened: as §1
# [9] = molecular target: Neu5Ac(a2-3)Gal(b1-4)GlcNAc
# Procedure, shortened: as §1
# [10] = molecular target: Neu5Ac(a2-3)Gal(b1-4)GlcNAc(b1-2)Man
# Procedure, shortened: as §1
# [11] = molecular target: Neu5Ac(a2-3)Gal(b1-4)GlcNAc(b1-2)Man(a1-3)[GlcNAc(b1-4)][Neu5Ac(a2-3)Gal(b1-4)GlcNAc(b1-2)Man(a1-6)]Man(b1-4)GlcNAc(b1-4)GlcNAc
# Procedure, shortened: as §1
# [12] = molecular target: Neu5Ac(a2-3)Gal(b1-4)GlcNAc(b1-2)Man(a1-3)[Neu5Ac(a2-3)Gal(b1-4)GlcNAc(b1-2)Man(a1-6)]Man(b1-4)GlcNAc(b1-4)GlcNAc
# Procedure, shortened: as §1
# [13] = molecular target: Neu5Ac(a2-3)Gal(b1-4)GlcNAc(b1-2)Man(a1-3)[Neu5Ac(a2-3)Gal(b1-4)GlcNAc(b1-2)Man(a1-6)]Man(b1-4)GlcNAc(b1-4)[Fuc(a1-6)]GlcNAc
# Procedure, shortened: as §1
# [14] = molecular target: Neu5Ac(a2-3)Gal(b1-4)GlcNAc(b1-2)Man(a1-3)[Neu5Ac(a2-6)Gal(b1-4)GlcNAc(b1-2)Man(a1-6)]Man(b1-4)GlcNAc(b1-4)GlcNAc
# Procedure, shortened: as §1
# [15] = molecular target: Neu5Ac(a2-3)Gal(b1-4)GlcNAc(b1-2)[Neu5Ac(a2-3)Gal(b1-4)GlcNAc(b1-4)]Man(a1-3)[GlcNAc(b1-4)][Neu5Ac(a2-3)Gal(b1-4)GlcNAc(b1-2)[Neu5Ac(a2-3)Gal(b1-4)GlcNAc(b1-6)]Man(a1-6)]Man(b1-4)GlcNAc(b1-4)GlcNAc
# Procedure, shortened: as §1
# [16] = molecular target: Neu5Ac(a2-3)Gal(b1-4)GlcNAc(b1-2)[Neu5Ac(a2-3)Gal(b1-4)GlcNAc(b1-4)]Man(a1-3)[GlcNAc(b1-4)][Neu5Ac(a2-3)Gal(b1-4)GlcNAc(b1-4)Man(a1-6)]Man(b1-4)GlcNAc(b1-4)GlcNAc
# Procedure, shortened: as §1
# [17] = molecular target: Neu5Ac(a2-3)Gal(b1-4)GlcNAc(b1-2)[Neu5Ac(a2-3)Gal(b1-4)GlcNAc(b1-6)]Man(a1-6)[Neu5Ac(a2-3)Gal(b1-4)GlcNAc(b1-2)Man(a1-3)][GlcNAc(b1-4)]Man(b1-4)GlcNAc(b1-4)GlcNAc
# Procedure, shortened: as §1
# [18] = molecular target: Neu5Ac(a2-3)Gal(b1-4)GlcNAc(b1-3)Gal
# Procedure, shortened: as §1
# [19] = molecular target: Neu5Ac(a2-3)Gal(b1-4)GlcNAc(b1-3)Gal(b1-3)GlcNAc
# Procedure, shortened: as §1
# [20] = molecular target: Neu5Ac(a2-3)Gal(b1-4)GlcNAc(b1-3)Gal(b1-4)GlcNAc
# Procedure, shortened: as §1
# [21] = molecular target: Neu5Ac(a2-3)Gal(b1-4)GlcNAc(b1-3)Gal(b1-4)GlcNAc(b1-2)Man(a1-3)[Neu5Ac(a2-3)Gal(b1-4)GlcNAc(b1-3)Gal(b1-4)GlcNAc(b1-2)Man(a1-6)]Man(b1-4)GlcNAc(b1-4)GlcNAc
# Procedure, shortened: as §1
# [22] = molecular target: Neu5Ac(a2-3)Gal(b1-4)GlcNAc(b1-3)Gal(b1-4)GlcNAc(b1-3)Gal(b1-4)GlcNAc
# Procedure, shortened: as §1
# [23] = molecular target: Neu5Ac(a2-3)Gal(b1-4)GlcNAc(b1-3)Gal(b1-4)GlcNAc(b1-3)Gal(b1-4)GlcNAc(b1-2)Man(a1-3)[Neu5Ac(a2-3)Gal(b1-4)GlcNAc(b1-3)Gal(b1-4)GlcNAc(b1-3)Gal(b1-4)GlcNAc(b1-2)Man(a1-6)]GalNAc
# Procedure, shortened: as §1
# [24] = molecular target: Neu5Ac(a2-3)Gal(b1-4)GlcNAc(b1-3)Gal(b1-4)GlcNAc(b1-3)GalNAc
# Procedure, shortened: as §1
# [25] = molecular target: Neu5Ac(a2-3)Gal(b1-4)GlcNAc(b1-3)Gal(b1-4)GlcNAc(b1-3)[Neu5Ac(a2-3)Gal(b1-4)GlcNAc(b1-3)Gal(b1-4)GlcNAc(b1-6)]GalNAc
# Procedure, shortened: as §1
# [26] = molecular target: Neu5Ac(a2-3)Gal(b1-4)GlcNAc(b1-3)Gal(b1-4)GlcNAc(b1-6)[Gal(b1-3)]GalNAc
# Procedure, shortened: as §1
# [27] = molecular target: Neu5Ac(a2-3)Gal(b1-4)GlcNAc(b1-3)Gal(b1-4)[Fuc(a1-3)]GlcNAc
# Procedure, shortened: as §1
# [28] = molecular target: Neu5Ac(a2-3)Gal(b1-4)GlcNAc(b1-3)GalNAc
# Procedure, shortened: as §1
# [29] = molecular target: Neu5Ac(a2-3)Gal(b1-4)GlcNAc(b1-3)[Neu5Ac(a2-3)Gal(b1-4)GlcNAc(b1-6)]GalNAc
# Procedure, shortened: as §1
# [30] = molecular target: Neu5Ac(a2-3)Gal(b1-4)GlcNAc(b1-6)GalNAc
# Procedure, shortened: as §1
# [31] = molecular target: Neu5Ac(a2-3)Gal(b1-4)GlcNAc(b1-6)[Gal(b1-3)]GalNAc
# Procedure, shortened: as §1
# [32] = molecular target: Neu5Ac(a2-3)Gal(b1-4)GlcNAc(b1-6)[Neu5Ac(a2-3)Gal(b1-3)]GalNAc
# Procedure, shortened: as §1
# [33] = molecular target: Neu5Ac(a2-3)Gal(b1-4)GlcNAc6S
# Procedure, shortened: as §1
# [34] = molecular target: Neu5Ac(a2-3)Gal(b1-4)[Fuc(a1-3)]GlcNAc
# Procedure, shortened: as §1
# [35] = molecular target: Neu5Ac(a2-3)Gal(b1-4)[Fuc(a1-3)]GlcNAc(b1-2)Man
# Procedure, shortened: as §1
# [36] = molecular target: Neu5Ac(a2-3)Gal(b1-4)[Fuc(a1-3)]GlcNAc(b1-3)Gal
# Procedure, shortened: as §1
# [37] = molecular target: Neu5Ac(a2-3)Gal(b1-4)[Fuc(a1-3)]GlcNAc(b1-3)Gal(b1-4)GlcNAc
# Procedure, shortened: as §1
# [38] = molecular target: Neu5Ac(a2-3)Gal(b1-4)[Fuc(a1-3)]GlcNAc(b1-3)Gal(b1-4)[Fuc(a1-3)]GlcNAc(b1-3)Gal(b1-4)[Fuc(a1-3)]GlcNAc
# Procedure, shortened: as §1
# [39] = molecular target: Neu5Ac(a2-3)Gal(b1-4)[Fuc(a1-3)]GlcNAc(b1-3)GalNAc
# Procedure, shortened: as §1
# [40] = molecular target: Neu5Ac(a2-3)Gal(b1-4)[Fuc(a1-3)]GlcNAc(b1-6)[Gal(b1-3)]GalNAc
# Procedure, shortened: as §1
# [41] = molecular target: Neu5Ac(a2-3)Gal(b1-4)[Fuc(a1-3)]GlcNAc(b1-6)[Neu5Ac(a2-3)Gal(b1-3)]GalNAc
# Procedure, shortened: as §1
# [42] = molecular target: Neu5Ac(a2-3)Gal(b1-4)[Fuc(a1-3)]GlcNAc6S
# Procedure, shortened: as §1
# [43] = molecular target: Neu5Ac(a2-3)Gal6S(b1-4)GlcNAc
# Procedure, shortened: as §1
# [44] = molecular target: Neu5Ac(a2-3)Gal6S(b1-4)[Fuc(a1-3)]GlcNAc
# Procedure, shortened: as §1
binder,measurement,setting,value
B1,glycan array binding signal (z-score),[1],-0.456
same,glycan array binding signal (z-score),[2],0.549
same,glycan array binding signal (z-score),[3],4
same,glycan array binding signal (z-score),[4],0.002
same,glycan array binding signal (z-score),[5],0.001
same,glycan array binding signal (z-score),[6],1.54
same,glycan array binding signal (z-score),[7],0
same,glycan array binding signal (z-score),[8],-0.501
same,glycan array binding signal (z-score),Neu5Ac(a2-3)Gal(b1-4)Glc,-0.112
same,glycan array binding signal (z-score),[9],-0.767
same,glycan array binding signal (z-score),[10],-0.276
same,glycan array binding signal (z-score),[11],-0.475
same,glycan array binding signal (z-score),[12],-0.115
same,glycan array binding signal (z-score),[13],0.96
same,glycan array binding signal (z-score),[14],0.204
same,glycan array binding signal (z-score),[15],-0.464
same,glycan array binding signal (z-score),[16],-0.533
same,glycan array binding signal (z-score),[17],4.22
same,glycan array binding signal (z-score),[18],-0.399
same,glycan array binding signal (z-score),[19],-0.645
same,glycan array binding signal (z-score),[20],-0.464
same,glycan array binding signal (z-score),[21],-0.165
same,glycan array binding signal (z-score),[22],-0.783
same,glycan array binding signal (z-score),[23],0.272
same,glycan array binding signal (z-score),[24],1.15
same,glycan array binding signal (z-score),[25],-0.034
same,glycan array binding signal (z-score),[26],1.44
same,glycan array binding signal (z-score),[27],2.37
same,glycan array binding signal (z-score),[28],-0.508
same,glycan array binding signal (z-score),[29],-0.452
same,glycan array binding signal (z-score),[30],4.01
same,glycan array binding signal (z-score),[31],0.811
same,glycan array binding signal (z-score),[32],-0.533
same,glycan array binding signal (z-score),[33],-0.485
same,glycan array binding signal (z-score),[34],-0.329
same,glycan array binding signal (z-score),[35],1.42
same,glycan array binding signal (z-score),[36],-0.247
same,glycan array binding signal (z-score),[37],0.095
same,glycan array binding signal (z-score),[38],-0.334
same,glycan array binding signal (z-score),[39],0.106
same,glycan array binding signal (z-score),[40],-0.613
same,glycan array binding signal (z-score),[41],1.98
same,glycan array binding signal (z-score),[42],0.309
same,glycan array binding signal (z-score),[43],-0.572
same,glycan array binding signal (z-score),[44],-0.356
